From PubChem BioAssay (Tox21)
The shares of active, inactive and inconclusive entries below differ from those in the screen. For part of these data: Where the call is inconclusive, the potency comes from a doubtful curve fit. Active and inactive are the calls of the source. Unless noted, calls come from the whole dose curve; as a rule, active = well fitted curve in the direction sought with a large enough effect in the repeat runs; inconclusive = weak or mixed curves; inactive = no such curve, though single readings can be large; an effect the other way counts as inactive or inconclusive.

How the values were obtained:
[1] = biological target: Peroxisome proliferator-activated receptor gamma (Homo sapiens) (UniProt P37231); experiment: qHTS assay to identify small molecule antagonists of the peroxisome proliferator-activated receptor gamma (PPARg) signaling pathway (AID 743191; calls by dose curve; note: nearly all actives have a fitted effect of over 30% in size; note: potency is the fitted concentration of half-maximal effect; for ratio activity, negative = inhibition: % is set by controls: 0 for no effect and ±100 for the full control effect); details: HEK293H PPARg-UAS-bla, beta-lactamase ratio, antagonist, 17 h
Outline: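 GeneBLAzer PPARg UAS-bla HEK293H cells, 5 h post-plating, exposed to compounds 17 h at 37C. LiveBLAzer B/G FRET substrate added for 1 h at room temperature; beta-lactamase reporter read by fluorescence intensity.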

[2] = qHTS assay to identify small molecule antagonists of the peroxisome proliferator-activated receptor gamma (PPARg) signaling pathway - cell viability counter screen (AID 743194); details: PPARg-bla HEK293H viability, CellTiter-Glo luminescence, 17 h; Potency: co-treated with 50 nM rosiglitazone unless noted; activity change, negative = cytotoxicity: at 62.6 µM (top of the series), co-treated with 50 nM rosiglitazone unless noted; note: potency is the fitted concentration of half-maximal effect; nearly all actives have a fitted effect of over 55% in size
Outline: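 Cytotoxicity counter screen in PPARg-bla HEK293H cells, same wells as reporter assay. Compounds plus 50 nM rosiglitazone (final) for 17 h at 37 C, then viability read by CellTiter-Glo luminescence.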

[3] = qHTS assay for small molecule agonists of the antioxidant response element (ARE) signaling pathway (AID 743202; active = well fitted activation curve with a large enough effect in the signal ratio in the repeat runs, not every such curve was filed as active; inconclusive = weak or mixed curves, or effect the other way; inactive = no such curve, though single readings can be large or run the other way; the % refers to the signal ratio; note: potency is the fitted concentration of half-maximal effect); details: HepG2 ARE-bla reporter, beta-lactamase FRET, 16 h; activation: at 73.3 µM (top of the series) unless noted
Outline: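 HepG2 ARE-bla reporter line, 2,000 cells/well; 5 h preincubation 37 C/5% CO2; compound (DMSO) 16 h 37 C; B/G FRET substrate 2 h RT; fluorescence intensity.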

[4] = qHTS assay for small molecule activators of the heat shock response signaling pathway (AID 743210; active = well fitted activation curve with a large enough effect in the signal ratio in the repeat runs, with a control signal flat, not every such curve was filed as active; inconclusive = weak or mixed curves; the % refers to the signal ratio; note: potency is the fitted concentration of half-maximal effect); details: HeLa HSE-bla reporter, beta-lactamase ratio, 5 h; activation: at 62.6 µM (top of the series)
Outline: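 Beta-lactamase reporter read-out: FRET substrate fluorescence after 2.5 h at RT, following 5 h compound treatment at 37 C of HeLa cells carrying HSE-driven bla reporter; quantitative HTS format.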

[5] = qHTS assay to identify small molecule agonists of the peroxisome proliferator-activated receptor delta (PPARd) signaling pathway - cell viability counter screen (AID 743211); details: PPARd-bla HEK293H viability, CellTiter-Glo luminescence, 17 h; activity change, negative = cytotoxicity: at 62.6 µM (top of the series) unless noted; note: potency is the fitted concentration of half-maximal effect; nearly all actives have a fitted effect of over 55% in size
Outline: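 qHTS cell viability: PPARd-bla HEK293H; 17 h cpd, 37C; CellTiter-Glo, luminescence at 30 min RT.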

[6] = qHTS assay to identify small molecule antagonists of the peroxisome proliferator-activated receptor delta (PPARd) signaling pathway - cell viability counter screen (AID 743213); details: PPARd-bla HEK293H viability, CellTiter-Glo luminescence, 17 h; viability change, negative = cytotoxic: at 62 µM (top of the series) unless noted; note: nearly all actives have a fitted effect of over 50% in size; note: potency is the fitted concentration of half-maximal effect
Outline: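 PPARd-bla HEK293H cells (3000/well) got compound plus 300 nM L165041 agonist for 17 h at 37 C. Viability in the same wells came from CellTiter-Glo luminescence after 30 min at room temperature.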

[7] = biological target: Bile acid receptor (Homo sapiens) (UniProt Q96RI1); experiment: qHTS assay to identify small molecule antagonists of the farnesoid-X-receptor (FXR) signaling pathway (AID 743217; active = well fitted inhibition curve with a large enough effect in the signal ratio in the repeat runs, not every such curve was filed as active; inconclusive = weak or mixed curves, or effect the other way; inactive = no such curve, though single readings can be large or run the other way; the % refers to the signal ratio; note: potency is the fitted concentration of half-maximal effect; for activity change, negative = inhibition: % is set by controls: 0 for no effect and ±100 for the full control effect); details: HEK293T FXR-UAS-bla, beta-lactamase ratio, CDCA-stimulated, 16 h; activity change, negative = inhibition: at 62.6 µM (top of the series) unless noted
Outline: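 Quantitative HTS, beta-lactamase reporter format: FXR-UAS-bla HEK 293T cells co-treated 16 h at 37 °C with compounds and 50 uM final chenodeoxycholic acid, then read by B/G FRET fluorescence.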

[8] = qHTS assay to identify small molecule agonists of the farnesoid-X-receptor (FXR) signaling pathway - cell viability counter screen (AID 743218); details: FXR-bla HEK293T viability, CellTiter-Glo luminescence, 16 h; viability change, negative = cytotoxic: at 62.6 µM (top of the series) unless noted; note: potency is the fitted concentration of half-maximal effect; nearly all actives have a fitted effect of over 45% in size
Outline: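 Same-well cytotoxicity check on FXR-UAS-bla HEK 293T cells: 5 h attachment, 16 h compound at 37 C, CellTiter-Glo luminescence read at room temperature after 30 min.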

[9] = biological target: Vitamin D3 receptor (Homo sapiens) (UniProt P11473); experiment: qHTS assay to identify small molecule antagonists of the vitamin D receptor (VDR) signaling pathway (AID 743223; active = well fitted inhibition curve with a large enough effect in the signal ratio in the repeat runs, not every such curve was filed as active; inconclusive = weak or mixed curves, or effect the other way; inactive = no such curve, though single readings can be large or run the other way; the % refers to the signal ratio; note: potency is the fitted concentration of half-maximal effect); details: VDR-UAS-bla HEK293T, beta-lactamase FRET ratio, 16 h; activity change, negative = inhibition: at 61 µM (top of the series) unless noted
Outline: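 Reporter line VDR-bla; stimulus 1alpha,25-(OH)2 vitamin D3, 3 nM final; compound co-addition, 16 h 37C/5% CO2; LiveBLAzer B/G substrate 2 h RT; fluorescence intensity.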

[10] = qHTS assay to identify small molecule agonists of the vitamin D receptor (VDR) signaling pathway - cell viability counter screen (AID 743224); note: potency is the fitted concentration of half-maximal effect; nearly all actives have a fitted effect of over 50% in size
Outline: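 Counter screen for cytotoxicity: VDR-bla cells at 2,000 cells/well, 16 h compound exposure, then CellTiter-Glo luminescence after the beta-lactamase measurement.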

[11] = qHTS assay to identify small molecule antagonists of the vitamin D receptor (VDR) signaling pathway - cell viability counter screen (AID 743225); details: VDR-bla HEK293T viability, CellTiter-Glo luminescence, 16 h; viability change, negative = cytotoxic: at 61 µM (top of the series) unless noted; note: potency is the fitted concentration of half-maximal effect; nearly all actives have a fitted effect of over 50% in size
Outline: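 Parallel cytotoxicity test: VDR-UAS-bla HEK 293T, 3 nM (final) 1-alpha,25-dihydroxyvitamin D3 with test compound, 16 h, 37C. Endpoint is CellTiter-Glo luminescence in the same wells.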

[12] = qHTS assay to identify small molecule agonists of the endoplasmic reticulum stress response signaling pathway (AID 1159516; active = well fitted activation curve with a large enough effect in the signal ratio in the repeat runs, not every such curve was filed as active; inconclusive = weak or mixed curves, or effect the other way; the % refers to the signal ratio; note: potency is the fitted concentration of half-maximal effect); details: ESRE-bla HeLa, ER stress beta-lactamase reporter, 5 h; activation: at 61 µM (top of the series) unless noted
Outline: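 For this screen, HeLa cells stably carrying beta-lactamase under the ER stress response element received test compounds, positive controls or DMSO for 5 hr at 37 C; B/G FRET substrate was then added and dual-wavelength emission recorded.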

[13] = biological target: Bile acid receptor (Homo sapiens) (UniProt Q96RI1); experiment: qHTS assay to identify small molecule agonists of the farnesoid-X-receptor (FXR) signaling pathway (AID 743220; active = well fitted activation curve with a large enough effect in the signal ratio in the repeat runs, not every such curve was filed as active; inconclusive = weak or mixed curves, or effect the other way; the % refers to the signal ratio; note: % is set by controls: 0 for no effect and ±100 for the full control effect); details: HEK293T FXR-UAS-bla, beta-lactamase FRET ratio, 16 h; activation: at 62.6 µM (top of the series) unless noted
Outline: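 FXR-UAS-bla HEK 293T cells carrying a UAS-driven beta-lactamase reporter were plated for 5 h at 37C/5% CO2, then exposed to DMSO-dissolved Tox21 10K compounds for 16 h at 37C. A LiveBLAzer B/G FRET substrate was loaded for 2 h at room temperature before fluorescence reading.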

[14] = biological target: Peroxisome proliferator-activated receptor delta (Homo sapiens) (UniProt Q03181); experiment: qHTS assay to identify small molecule agonists of the peroxisome proliferator-activated receptor delta (PPARd) signaling pathway (AID 743212; calls by dose curve; note: potency is the fitted concentration of half-maximal effect; for activation: % is set by controls: 0 for no effect and ±100 for the full control effect); details: HEK293H PPARd-UAS-bla, beta-lactamase FRET ratio, 17 h; activation: at 62.6 µM (top of the series) unless noted
Outline: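 Read-out: beta-lactamase FRET fluorescence after 2 h room-temperature incubation with LiveBLAzer B/G substrate. Cells were HEK293H carrying a UAS-bla reporter for PPARd, treated at 37 C with DMSO-dissolved compounds.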

[15] = biological target: Peroxisome proliferator-activated receptor delta (Homo sapiens) (UniProt Q03181); experiment: qHTS assay to identify small molecule antagonists of the peroxisome proliferator-activated receptor delta (PPARd) signaling pathway (AID 743215; active = well fitted inhibition curve with a large enough effect in the signal ratio in the repeat runs, not every such curve was filed as active; inconclusive = weak or mixed curves, or effect the other way; inactive = no such curve, though single readings can be large or run the other way; the % refers to the signal ratio;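 note: cells stimulated with agonist L165041 at 300 nM final during compound exposure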; note: potency is the fitted concentration of half-maximal effect); details: HEK293H PPARd-UAS-bla, beta-lactamase FRET ratio, antagonist, 17 h; ratio activity, negative = inhibition: at 62 µM (top of the series) unless noted
Outline: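 Screen format: qHTS, antagonist mode. HEK293H PPARd-bla cells received compound and 300 nM L165041 (final), 17 h, 37 C. Beta-lactamase detected via FRET substrate fluorescence, 2 h, room temperature.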

[16] = biological target: Vitamin D3 receptor (Homo sapiens) (UniProt P11473); experiment: qHTS assay to identify small molecule agonists of the vitamin D receptor (VDR) signaling pathway (AID 743222; calls by dose curve; note: potency is the fitted concentration of half-maximal effect); details: HEK293T VDR-UAS-bla, beta-lactamase FRET ratio, 16 h; activation: at 63.5 µM (top of the series) unless noted
Outline: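 Using LiveBLAzer B/G FRET detection, agonism was scored in VDR-bla cells exposed overnight (16 h, 37C) to DMSO-dissolved compounds; substrate incubation was 2 h at room temperature.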

[17] = qHTS assay for small molecule agonists of the antioxidant response element (ARE) signaling pathway - cell viability counter screen (AID 743203; calls by dose curve; note: potency is the fitted concentration of half-maximal effect; nearly all actives have a fitted effect of over 55% in size)
Outline: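 Parallel cytotoxicity read-out for the ARE-bla screen: HepG2 reporter cells, 16 hrs with compounds, then CellTiter-Glo luminescence.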

[18] = qHTS assay for small molecule activators of the heat shock response signaling pathway - cell viability counter screen (AID 743209); details: HSE-bla HeLa viability, CellTiter-Glo luminescence, 5 h; activity change, negative = cytotoxicity: at 62.6 µM (top of the series) unless noted; note: potency is the fitted concentration of half-maximal effect; nearly all actives have a fitted effect of over 50% in size
Outline: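 To flag cytotoxic compounds, HSE-bla HeLa cells plated at 1500 cells/well were dosed for 5 h at 37 C, followed by the reporter FRET read and then CellTiter-Glo, with luminescence recorded 30 min after reagent addition.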

[19] = qHTS assay to identify small molecule antagonists of the farnesoid-X-receptor (FXR) signaling pathway - cell viability counter screen (AID 743221; active = well fitted cell-killing curve with a large enough effect in the repeat runs, not every such curve was filed as active; inconclusive = weak or mixed curves, or effect the other way; inactive = no such curve, though single readings can be large or run the other way); details: FXR-bla HEK293T viability, CellTiter-Glo luminescence, 16 h; activity change, negative = cytotoxicity: at 62.6 µM (top of the series) unless noted
Outline: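 After a 5 h settling period, FXR-bla HEK 293T cells receive compound and chenodeoxycholic acid (50 uM final) and incubate 16 h at 37 C; CellTiter-Glo luminescence, read after 30 min at room temperature, reports cell viability.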

[20] = ratio activity, negative = inhibition: at 62.6 µM (top of the series) unless noted
Tags give direction and shape of the fitted curve or compound fluorescence and quenching.

Sequence of UniProt P37231 (P37231 whole entry, looked up): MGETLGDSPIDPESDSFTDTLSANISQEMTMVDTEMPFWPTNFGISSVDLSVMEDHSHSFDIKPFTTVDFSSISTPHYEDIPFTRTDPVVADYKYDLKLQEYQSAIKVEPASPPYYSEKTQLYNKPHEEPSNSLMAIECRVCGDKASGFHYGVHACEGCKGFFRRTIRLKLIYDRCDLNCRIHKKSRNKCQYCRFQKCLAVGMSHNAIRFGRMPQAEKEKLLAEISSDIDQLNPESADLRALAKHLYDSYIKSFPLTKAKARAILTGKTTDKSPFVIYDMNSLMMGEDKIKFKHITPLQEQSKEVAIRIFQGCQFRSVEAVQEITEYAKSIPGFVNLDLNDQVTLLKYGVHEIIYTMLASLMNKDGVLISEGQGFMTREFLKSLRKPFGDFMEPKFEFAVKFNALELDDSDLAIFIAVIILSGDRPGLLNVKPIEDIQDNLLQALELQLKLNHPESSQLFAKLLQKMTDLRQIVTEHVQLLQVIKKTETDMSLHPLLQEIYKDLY
Sequence of UniProt Q03181 (Q03181 whole entry, looked up): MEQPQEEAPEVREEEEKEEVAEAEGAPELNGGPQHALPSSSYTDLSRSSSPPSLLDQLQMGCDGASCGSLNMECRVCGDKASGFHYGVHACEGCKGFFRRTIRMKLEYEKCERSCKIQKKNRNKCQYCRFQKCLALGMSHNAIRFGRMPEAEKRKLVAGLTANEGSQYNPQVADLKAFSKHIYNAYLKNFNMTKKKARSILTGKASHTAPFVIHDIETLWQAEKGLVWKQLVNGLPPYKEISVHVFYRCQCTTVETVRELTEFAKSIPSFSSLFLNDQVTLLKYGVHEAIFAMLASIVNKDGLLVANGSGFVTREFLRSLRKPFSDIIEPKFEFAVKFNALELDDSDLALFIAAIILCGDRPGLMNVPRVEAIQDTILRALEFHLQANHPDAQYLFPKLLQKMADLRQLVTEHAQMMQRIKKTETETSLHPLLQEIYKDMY
Sequence of UniProt Q96RI1 (Q96RI1 whole entry, looked up): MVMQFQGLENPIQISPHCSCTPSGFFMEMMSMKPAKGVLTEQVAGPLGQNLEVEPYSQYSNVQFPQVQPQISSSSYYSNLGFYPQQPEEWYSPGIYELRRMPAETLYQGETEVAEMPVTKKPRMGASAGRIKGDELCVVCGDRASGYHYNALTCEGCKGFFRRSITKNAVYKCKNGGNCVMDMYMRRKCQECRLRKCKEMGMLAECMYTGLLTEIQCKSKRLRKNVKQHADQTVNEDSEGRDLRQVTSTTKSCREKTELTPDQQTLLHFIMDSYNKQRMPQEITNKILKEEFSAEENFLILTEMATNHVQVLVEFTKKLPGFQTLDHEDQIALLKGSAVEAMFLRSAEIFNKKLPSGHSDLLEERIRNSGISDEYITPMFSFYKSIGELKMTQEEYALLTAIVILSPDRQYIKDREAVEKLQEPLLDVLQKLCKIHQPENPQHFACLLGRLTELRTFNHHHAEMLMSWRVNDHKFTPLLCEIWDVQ
Sequence of UniProt P11473 (P11473 whole entry, looked up): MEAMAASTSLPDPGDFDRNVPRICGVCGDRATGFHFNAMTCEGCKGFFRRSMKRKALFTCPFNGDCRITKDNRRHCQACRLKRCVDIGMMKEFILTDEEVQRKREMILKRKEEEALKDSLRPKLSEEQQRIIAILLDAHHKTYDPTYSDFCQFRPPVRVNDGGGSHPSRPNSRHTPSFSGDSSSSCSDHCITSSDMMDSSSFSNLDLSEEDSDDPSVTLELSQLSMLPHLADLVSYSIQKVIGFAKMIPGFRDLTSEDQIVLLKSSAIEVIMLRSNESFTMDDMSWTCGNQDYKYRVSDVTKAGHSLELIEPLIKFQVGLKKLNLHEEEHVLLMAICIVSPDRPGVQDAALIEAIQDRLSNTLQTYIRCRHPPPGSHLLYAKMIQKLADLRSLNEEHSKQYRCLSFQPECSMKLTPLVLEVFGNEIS

## BrC(Br)C(Br)(Br)Br
[1]; [20]
  ratio activity, negative = inhibition: inconclusive: -80.2% [inhibitor] [at 81.1 µM]
[2]
  Potency: inconclusive: 62 µM [cytotoxic, partial curve, poor fit]
[3]
  Potency: inconclusive: 61.5 µM
[4]
  Potency: inconclusive: 49.3 µM
[5]
  Potency: active: 49.3 µM
[6]
  Potency: active: 39.1 µM
[7]
  activity change, negative = inhibition: inconclusive: -39.3% [at 81.1 µM]
[8]
  Potency: inconclusive: 49.3 µM [cytotoxic, single point]
[9]
  Potency: inconclusive: 24.7 µM [rising, partial curve, poor fit]
[10]
  Potency: inconclusive: 49.3 µM [cytotoxic, partial curve]
[11]
  Potency: inconclusive: 0.0028 µM [rising, full curve, poor fit]
[12]
  Potency: inconclusive: 31.1 µM [rising, partial curve, poor fit]

## COP(=O)(OC)Oc1ccc([N+](=O)[O-])cc1
[1]; [20]
  Potency: active: 17.4 µM
[2]
  Potency: inconclusive: 21.9 µM [cytotoxic, full curve, poor fit]
[3]
  Potency: inconclusive: 34.4 µM [falling, partial curve]
[4]
  Potency: inconclusive: 36.7 µM
[7]
  Potency: inconclusive: 21.9 µM [inhibitor, partial curve]
[13]
  activation: inconclusive: 9.3%
[9]
  Potency: inconclusive: 0.871 µM [cytotoxic, partial curve, poor fit]
[12]
  Potency: inconclusive: 21.9 µM [falling, partial curve]

## COC(=O)N(C(=O)N1CO[C@@]2(C(=O)OC)Cc3cc(Cl)ccc3C2=N1)c1ccc(OC(F)(F)F)cc1
[1]; [20]
  ratio activity, negative = inhibition: inconclusive: 4.74%
[2]
  Potency: inconclusive: 9.45 µM [cytotoxic, full curve, poor fit]
[3]
  Potency: inconclusive: 52.7 µM [falling, partial curve]
[4]
  Potency: inconclusive: 19.6 µM
[14]
  activation: inconclusive: 16.9%
[6]
  Potency: inconclusive: 5.31 µM [cytotoxic, full curve, poor fit]
[15]
  ratio activity, negative = inhibition: inconclusive: 10.9%
[16]
  Potency: inconclusive: 42.2 µM [activator, single point]
[11]
  Potency: inconclusive: 13.3 µM [cytotoxic, partial curve]
[12]
  activation: inconclusive: 11.9%

## S=C=NCc1ccccc1
[1]; [20]
  Potency: inconclusive: 55.5 µM [activator]
[2]
  Potency: inconclusive: 0.14 µM [cytotoxic, full curve, poor fit]
[3]
  Potency: active: 24.6 µM
[17]
  Potency: inconclusive: 69.3 µM [cytotoxic, single point]
[18]
  Potency: inconclusive: 55.5 µM [cytotoxic, single point]
[4]
  Potency: inconclusive: 44.1 µM [falling, partial curve]
[14]
  Potency: inactive
[6]
  Potency: inactive
[15]
  Potency: inconclusive: 62.3 µM [rising, single point]
[7]
  Potency: inconclusive: 55.5 µM [single point]
[13]
  activation: inconclusive: -4.92% [at 81.1 µM]
[10]
  Potency: inconclusive: 55.5 µM [cytotoxic, single point]
[12]
  Potency: inconclusive: 62.3 µM [rising, partial curve, poor fit]

## Oc1c(Br)c(Br)c(Br)c(Br)c1Br
[1]; [20]
  Potency: inconclusive: 0.696 µM [full curve]
[2]
  Potency: active: 49.3 µM
[3]
  Potency: inconclusive: 7.74 µM [rising, full curve]
[4]
  Potency: inconclusive: 13.4 µM
[14]
  Potency: inconclusive: 43.9 µM [rising, partial curve, poor fit]
[6]
  Potency: inconclusive: 1.75 µM [cytotoxic, full curve]
[7]
  Potency: inconclusive: 22 µM
[8]
  Potency: inconclusive: 62.1 µM [cytotoxic, partial curve, poor fit]
[19]
  Potency: inconclusive: 0.392 µM [falling, full curve, poor fit]
[16]
  Potency: inconclusive: 49.3 µM [rising, partial curve]
[9]
  Potency: inconclusive: 24.7 µM
[10]
  Potency: inconclusive: 4.93 µM [cytotoxic, full curve]
[11]
  Potency: inconclusive: 1.96 µM [cytotoxic, full curve, poor fit]
[12]
  Potency: inconclusive: 15.6 µM [falling, full curve]

## Oc1ccc(C(=C(Cl)Cl)c2ccc(O)cc2)cc1
[1]; [20]
  Potency: active: 17.3 µM
[2]
  Potency: inconclusive: 38.8 µM [cytotoxic, partial curve]
[3]
  Potency: active: 24.3 µM
[17]
  Potency: inconclusive: 68.5 µM [cytotoxic, single point]
[4]
  Potency: inconclusive: 54.8 µM [single point]
[5]
  Potency: inconclusive: 54.8 µM [cytotoxic]
[14]
  Potency: inconclusive: 30.8 µM [rising, partial curve, poor fit]
[6]
  Potency: inconclusive: 54.8 µM [cytotoxic, single point]
[15]
  Potency: active: 19.5 µM
[7]
  activity change, negative = inhibition: inconclusive: -23.4%
[8]
  Potency: inconclusive: 61.5 µM [cytotoxic, single point]
[10]
  Potency: active: 48.9 µM
[11]
  Potency: inconclusive: 61.5 µM [cytotoxic, single point]
[12]
  activation: inconclusive: 1.76%

## N#CC(c1ccccc1)c1ccccc1
[1]; at 62.6 µM (top of the series)
  ratio activity, negative = inhibition: inactive: 11.7%
[1]; [20]
  ratio activity, negative = inhibition: inconclusive: -10.2%
[16]
  Potency: inconclusive: 12.3 µM [rising, partial curve, poor fit]
[12]
  Potency: inconclusive: 0.0015 µM
